From PubChem BioAssay AID624417 (National Center for Advancing Translational Sciences (NCATS), 2012)
Values joined by “and” are separate entries in the source; they are usually repeats but may differ in a detail not shown here. Equal values may be shown once. The campaign covered roughly 410,000 compounds. About 6,400 (1.6%) were called active. Inconclusive results, whose numbers are uncertain, are shown with a selection of clear calls. Calls follow the shape of the dose curve; as a rule, active = well fitted inhibition curve with a large enough effect; inconclusive = small, poorly fitted or top-dose-only effect; inactive = no such curve, though single readings can be large or run the other way. Potencies beside an inconclusive call are fits to weak or partial responses and may not hold up.
% is scaled to controls: 0 for no effect and ±100 for the full control effect; potency is read from the fitted curve at half-maximal effect; tags tell the direction and shape of the fitted curve.
Also: nearly all actives have a fitted effect of over 55% in size.

What follows are compounds tested against Glucagon-like peptide 1 receptor (Homo sapiens) (UniProt P43220) (assay: qHTS of GLP-1 Receptor Inverse Agonists (Inhibition Mode)). Settings: HEK293 GLP-1R CRE-luciferase, luminescence, 24 h, GLP-1R form is constitutively active; activity change, negative = inhibition: at 38.3 µM (top of the series) unless noted.
UniProt P43220, sequence (P43220 whole entry, looked up): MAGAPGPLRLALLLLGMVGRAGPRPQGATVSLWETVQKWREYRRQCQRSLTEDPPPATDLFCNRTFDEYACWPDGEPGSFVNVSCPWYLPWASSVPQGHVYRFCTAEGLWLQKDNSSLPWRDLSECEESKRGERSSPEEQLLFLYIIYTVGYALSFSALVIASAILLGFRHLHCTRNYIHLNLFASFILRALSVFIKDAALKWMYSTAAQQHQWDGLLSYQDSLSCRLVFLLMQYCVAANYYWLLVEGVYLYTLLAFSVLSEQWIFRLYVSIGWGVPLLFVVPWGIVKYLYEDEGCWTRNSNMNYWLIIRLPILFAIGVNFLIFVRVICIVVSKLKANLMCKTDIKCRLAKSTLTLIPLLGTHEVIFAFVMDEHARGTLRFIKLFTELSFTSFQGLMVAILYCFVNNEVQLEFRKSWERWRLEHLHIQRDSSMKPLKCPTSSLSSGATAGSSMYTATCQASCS
Procedure, shortened: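 Luminescence readout: a drop in cAMP-driven luciferase signal flags inverse agonism at a constitutively active GLP-1R stably expressed in HEK293. Compound exposure lasted 24 hr at 37 deg C, 5% CO2.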
In the case of `N#Cc1cc2c(nc1SC1CC(=O)N(c3ccccc3)C1=O)CCC2` (stereo unspecified), the Potency is reported as inconclusive: 2.82 µM [inhibitor, full curve].
For `CN(C(=O)C1CCCN(c2ncnc3c2nc2n3CCCCC2)C1)c1cccc(Cl)c1` (stereo unspecified), the Potency was inconclusive: 28.2 µM [inhibitor, single point].
With `CC(=O)N1C2=CCCC3CCCCC23c2ccccc21` (stereo unspecified) the Potency was inconclusive: 28.2 µM [inhibitor, single point].
For `COc1cccc(CC(NC(C)=O)C(=O)NC2CCN(c3nc(C)cc(C)c3C#N)CC2)c1` (stereo unspecified), the “activity change, negative = inhibition” value was inactive: -8.71%.
`COCCNC(=O)C(c1ccco1)N(C(=O)Cn1nnc2ccccc21)c1ccccc1C` (stereo unspecified) was tested, and the Potency was inconclusive: 12.6 µM [inhibitor, single point].
In the case of `CCCCCCSc1ccc(-c2nc3ccc(C)cn3c2NCc2ccccc2)cc1OC`, the Potency is reported as inconclusive: 14.1 µM [inhibitor, partial curve, poor fit] and inconclusive: 10 µM [inhibitor, partial curve, poor fit].
For `CCOc1cc(CNc2ccc(CNc3ncn[nH]3)cc2)ccc1OCc1ccccc1`, the Potency was inconclusive: 1.26 µM [inhibitor, full curve].
With `Cc1ccc(C(=O)/C=C/c2ccc3c(c2)OCCO3)c(O)c1` the Potency was inconclusive: 28.2 µM [inhibitor, single point].
In the case of `CCOC(=O)/C(=N\Nc1ccccc1Cl)N(C)C1CCS(=O)(=O)C1` (stereo unspecified), the “activity change, negative = inhibition” value is reported as inactive: -27.7%.
`O=C1C(Cl)=C(N2CCCCC2)C(=O)N1Cc1ccccc1` was tested, and the Potency was inconclusive: 12.6 µM [inhibitor, single point].
With `OCC1(Cc2ccccc2F)CCCN(CCc2ccccc2)C1` (stereo unspecified) the Potency was inconclusive: 8.91 µM [inhibitor, partial curve, poor fit].
`O=C(C1CCC(=O)N(C2CCCC2)C1)N1CCC(Oc2cccc(F)c2)CC1` (stereo unspecified) was tested, and the Potency was inconclusive: 28.2 µM [inhibitor, single point].
`COc1ccc(C(C)(O)c2nc(-c3ccc(C)c(C)c3)cs2)cc1` (stereo unspecified) was tested, and the Potency was inconclusive: 28.2 µM [inhibitor, single point].
In the case of `CNCCCC12CCC(c3ccccc31)c1ccccc12`, the Potency is reported as inconclusive: 10 µM [inhibitor, partial curve, poor fit] and inconclusive: 11.2 µM [inhibitor, partial curve, poor fit] and inconclusive: 6.31 µM [inhibitor, partial curve, poor fit].
`CCN1C(=O)C(=O)N(CC(=O)c2cc(C)n(C3CC3)c2C)C1=O` was tested, and the “activity change, negative = inhibition” value was inactive: 14.6%.
For `COc1c(O)cc2oc(-c3ccc(O)cc3)cc(=O)c2c1O`, the “activity change, negative = inhibition” value was inactive: 17.9%.
